The results in this text go back to PubChem BioAssay AID1645887 (National Center for Advancing Translational Sciences (NCATS), 2021).

Values joined by “and” are separate entries in the source; they are usually repeats but may differ in a detail not shown here. Identical values can stand only once. In all, about 16,000 compounds went through this assay and about 40 (0.2%) were called active. About 1% were inconclusive and are not listed. Calls follow the shape of the dose curve; as a rule, active = well fitted activation curve with a large enough effect; inconclusive = small, poorly fitted or top-dose-only effect, or another doubt; inactive = no such curve, though single readings can be large or run the other way. This is one part of the list.
% is scaled to controls: 0 for no effect and ±100 for the full control effect.

For this experiment, the target named is Rap guanine nucleotide exchange factor 4 (Homo sapiens) (UniProt Q8WZA2). The experiment can be described thus: Validation qHTS for agonist of cAMP-regulated guanine nucleotide exchange factor 4 (EPAC2).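 Also: exchange makes BODIPY-GDP fluorescence drop when released from Rap1B; series mostly up to about 150 µM.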 As to conditions: EPAC2 Rap1B BODIPY-GDP exchange, fluorescence; activation: stronger effect = higher value. In a few lines: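 Signal normalized against 6.5 mM cAMP as agonist control. Mix of EPAC2 (100 nM), RAP1B-BODIPY-GDP (250 nM) and GDP (50 uM) was read kinetically at 480/540 nm, every 5 min over 30 min, after 5 min room-temperature incubation with compound.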
Chain of UniProt Q8WZA2 (Q8WZA2 whole entry, looked up): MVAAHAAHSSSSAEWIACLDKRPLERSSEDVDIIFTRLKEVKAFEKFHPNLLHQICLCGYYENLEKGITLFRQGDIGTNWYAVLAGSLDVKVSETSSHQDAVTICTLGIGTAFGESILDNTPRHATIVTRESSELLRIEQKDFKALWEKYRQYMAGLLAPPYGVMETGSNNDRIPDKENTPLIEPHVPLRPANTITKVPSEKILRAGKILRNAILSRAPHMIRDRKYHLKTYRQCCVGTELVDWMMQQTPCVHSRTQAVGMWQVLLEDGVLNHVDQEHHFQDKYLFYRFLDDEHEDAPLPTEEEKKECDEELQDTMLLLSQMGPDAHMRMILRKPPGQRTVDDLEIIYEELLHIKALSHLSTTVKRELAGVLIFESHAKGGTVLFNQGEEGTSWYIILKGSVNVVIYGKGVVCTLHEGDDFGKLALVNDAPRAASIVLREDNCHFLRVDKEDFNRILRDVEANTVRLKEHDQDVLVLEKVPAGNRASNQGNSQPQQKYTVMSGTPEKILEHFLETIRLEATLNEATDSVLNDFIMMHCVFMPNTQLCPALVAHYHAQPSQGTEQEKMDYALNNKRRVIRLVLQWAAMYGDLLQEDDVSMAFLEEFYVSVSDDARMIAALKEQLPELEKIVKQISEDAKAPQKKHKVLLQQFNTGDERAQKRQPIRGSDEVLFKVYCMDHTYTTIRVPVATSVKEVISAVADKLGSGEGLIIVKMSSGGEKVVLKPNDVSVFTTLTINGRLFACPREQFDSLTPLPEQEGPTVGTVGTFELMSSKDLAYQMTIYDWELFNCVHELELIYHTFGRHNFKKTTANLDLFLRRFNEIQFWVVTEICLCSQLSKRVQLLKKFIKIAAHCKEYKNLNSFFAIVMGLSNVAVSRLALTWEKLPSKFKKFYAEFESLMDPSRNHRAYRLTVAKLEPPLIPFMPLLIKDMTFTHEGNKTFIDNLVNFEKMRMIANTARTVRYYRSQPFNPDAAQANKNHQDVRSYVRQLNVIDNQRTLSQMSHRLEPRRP
On the technique in general: In qHTS, concentration-response curves come from the screen itself.
With `COc1ccc(F)c(CN2CCOc3ccc(CN4CCC(O)(c5cccnc5)CC4)cc3C2)c1`, the activation is inactive: -17.3%.

Consider `NC(=O)c1sc(-c2ccsc2)cc1N`, for which the activation was inactive: -1.75%.

For the molecule `COc1ccc(/C=C/C(=O)N2CCc3c(cnc(C)c3CNC(=O)c3ccsc3)C2)cc1OC`, the activation is inactive: -8.02%.

Take `COc1ccccc1CNc1ccnc(-c2ccccc2Cl)n1`: the activation is inactive: 3.68%.

Turning to `CCCCCCCCCCC(C)(C)C(=O)Nc1c(OC)cc(OC)cc1OC`, the activation was inactive: -90%.

As to `CC(N)(C(=O)O)c1ccc(C(=O)O)cc1` (stereo not given), the activation is inactive: 0.539% and inactive: -12.7%.

As for `CN1CCc2cccc3c2C1Cc1ccc(O)c(O)c1-3` (stereo not given), the activation was inactive: -1.99% and inactive: -24.3%.

Regarding `CC(=O)OCOC(c1ccc2ccccc2c1)P(=O)(OCOC(C)=O)OCOC(C)=O` (stereo not given), the activation was inactive: -8.96%.

As to `CC#CCOC(=O)c1c(C)nc2sc3c(c2c1N)CCC(O)C3` (stereo not given), the activation is inactive: -36%.

With `COC(=O)C1CCN(Cc2ccc3c(c2)CN(C(=O)c2cc(C)oc2C)CCO3)CC1`, the activation was inactive: -4.57%.

As to `O=C(Nc1cccc(F)c1)N1CCCC2(CCN(C(=O)c3cnccn3)CC2)C1`, the activation was inactive: 4.69%.

For `CCOc1ccccc1CN1CCCC(c2nc(C)ncc2-c2ccc(F)cc2)C1` (stereo not given), the activation was inactive: -16.2%.

For `COc1ccccc1C1CN(Cc2ccccc2O)Cc2ccccc2O1` (stereo not given), the activation is inactive: 4.98%.

`COc1ccc(-c2ccnc(-n3ncc(C(=O)NCc4cccnc4)c3C3CC3)n2)cc1F`: the activation was inactive: -19.4%.

`CC(N)(COP(=O)(O)O)C(=O)O` (stereo not given): the activation was inactive: 4.78%.

As for `O=c1c(-c2cccs2)nc2cncnc2n1Cc1ccccc1`, the activation is inactive: -3.4%.

On to `COc1ccc(Oc2ncc3nc(-c4cccs4)c(=O)n(CCC#N)c3n2)cc1`, for which the activation was inactive: 3.43%.

For the molecule `CCCCC(=O)Oc1ccccc1C(=O)O`, the activation was inactive: -11.2%.

Consider `CC[C@]12CCCN3CCc4c(n(c5ccccc45)C(=O)C1)[C@@H]32`, for which the activation is inactive: 0.698%.

In the case of `C[C@@H]1CCC(=O)N(CC[C@H](Oc2ccccc2)c2ccccc2)CC1`, the activation is inactive: -38.3%.

Take `Cn1cc(-c2nc3cncnc3n(C3CC3)c2=O)c2ccccc21`: the activation was inactive: -16.8%.

With `O=C(c1cccc(F)c1)N1CCC[C@@]2(CCN(Cc3ccncc3)C2)C1`, the activation is inactive: -4.51%.

As for `NC(=O)c1cc[n+](CC2=C(C(=O)O)N3C(=O)[C@@H](NC(=O)C(c4ccccc4)S(=O)(=O)[O-])[C@H]3SC2)cc1` (stereo not given in full), the activation was inactive: 1.42%.

On to `COc1ccc(CN2C[C@H](Cc3ccccc3)[C@@H](CC(=O)Nc3ccccc3)C2=O)cc1`, for which the activation was inactive: -26.4%.

As to `O=C(O[C@@H]1Cc2c(O)cc(O)cc2OC1c1ccc(O)c(O)c1)c1cc(O)c(O)c(O)c1` (stereo not given in full), the activation is inactive: -9.9%.

On to `COCCn1c(=O)c(-c2ccc(Cl)cc2)nc2cnc(N3CCOCC3)nc21`, for which the activation was inactive: -7.24%.

Take `COc1cc(C)nc(-n2nc(C)cc2OC)n1`: the activation was inactive: -19.1%.

As for `C[C@H](N)C(=O)O`, the activation is inactive: -8.54%.

Turning to `CCc1ccccc1N(C)C`, the activation was inactive: -19%.

Turning to `NCC(O)c1ccc(O)c(O)c1` (stereo not given), the activation was inactive: -10%.

As for `COc1cccc(CN2CCC3(CCC(CNC(=O)c4ccco4)O3)CC2)c1OC` (stereo not given), the activation was inactive: -5.64%.

For `O=c1ccc2c(OCCCCc3ccccc3)c3ccoc3cc2o1`, the activation was inactive: -33.8%.

Turning to `O=C(NCCO)c1cn(C2CCCN(Cc3cccc(C(F)(F)F)c3)C2)nn1` (stereo not given), the activation is inactive: -4.42%.

In the case of `Cc1cccc2c(N3CCCC3)nc(CNS(=O)(=O)c3ccc4ccccc4c3)nc12`, the activation is inactive: -13.5%.

Consider `CN(C)c1ccc(/C=C/C=C/c2ccnc3ccccc23)cc1`, for which the activation is inactive: -42.7%.

For `COc1ncc2nc(-c3cccc(C#N)c3)c(=O)n(CCC#N)c2n1`, the activation was inactive: -12.7%.

Take `CCn1c(=O)[nH]c2ccccc21`: the activation was inactive: -7.2%.

On to `CN(C)C(=O)[C@@H]1C[C@@H](Sc2nc3ccccc3[nH]2)CN1Cc1ccnc2ccccc12`, for which the activation is inactive: 1.97%.

Regarding `CC1(C)C2CC[C@]3(C)[C@H](C(=O)C=C4[C@@H]5C[C@@](C)(C(=O)O)CC[C@]5(C)CC[C@]43C)[C@@]2(C)CC[C@@H]1O[C@H]1O[C@H](C(=O)O)[C@@H](O)[C@H](O)[C@H]1O[C@@H]1O[C@H](C(=O)O)[C@@H](O)[C@H](O)[C@H]1O` (stereo not given in full), the activation was inactive: -12.1%.

Consider `CN1CCC2(CC1)CCN(C(=O)c1ccncc1)CC2`, for which the activation was inactive: -4.19%.

On to `CCOc1ccc(CN2CCOc3ccc(C(O)c4cccnc4)cc3C2)cc1` (stereo not given), for which the activation was inactive: -0.631%.

For `CC(O)[C@@H](N)C(=O)O` (stereo not given in full), the activation is inactive: 4.68%.

For `COC(=O)c1cc(CNC(=O)c2ccccc2OC)cc(NC(=O)c2ccccc2F)c1`, the activation was inactive: -9.28%.

With `O=C(O)C1=CCNCC1`, the activation was inactive: 7.3% [middle of 4 runs].

As for `OCc1ccccc1`, the activation is inactive: -13.2%.

Regarding `CO[C@H]1C[C@H](O[C@H]2[C@H](C)[C@@H](O[C@@H]3O[C@H](C)C[C@H](N(C)C)[C@H]3OC(C)=O)[C@@H](C)C[C@]3(CO3)C(=O)[C@H](C)[C@@H](OC(C)=O)[C@@H](C)[C@@H](C)OC(=O)[C@@H]2C)O[C@@H](C)[C@@H]1OC(C)=O`, the activation is inactive: 5.56%.

For `COc1ccc2oc(-c3ccc(O)cc3)cc(=O)c2c1`, the activation was inactive: -22%.

With `CCOC(=O)N1CCN(Cc2ccc3c(c2)CN(C(=O)c2cccc(-n4cccn4)c2)CCO3)CC1`, the activation is inactive: -8.94%.

Consider `CC(C)[C@@H]1NC(=O)[C@H](Cc2ccccc2)NC(=O)[C@@H](CC(=O)O)NC(=O)CNC(=O)[C@H](CCCNC(=N)N)NC1=O`, for which the activation was inactive: -15.4%.

For `COc1ccccc1-c1nccc(NCc2cccc(C)c2)n1`, the activation is inactive: -13.6%.

As for `CN(C)C(=O)c1ccc(-c2cncnc2Nc2ccc(F)cc2)cc1`, the activation was inactive: -12.3%.

For `CN1CCN(C2=Nc3ccccc3Sc3ccc(Cl)cc32)CC1`, the activation was inactive: -19.7% and inactive: 8.63%.

As for `COc1ccccc1CNc1ccnc(-c2cccnc2)n1`, the activation is inactive: -0.808%.

For `O=C(O)c1cc(=O)c2c3nc4ccccc4oc-3cc(=O)c2[nH]1`, the activation is inactive: 7.38%.

For `CC1(C)[C@@H](O[C@H]2O[C@H](C(=O)O)[C@@H](O)[C@H](O)[C@H]2O[C@@H]2O[C@H](C(=O)O)[C@@H](O)[C@H](O)[C@H]2O)CC[C@]2(C)[C@H]3C(=O)C=C4[C@@H]5C[C@@](C)(C(=O)O)CC[C@]5(C)CC[C@@]4(C)[C@]3(C)CC[C@@H]12`, the activation is inactive: 3.87%.

Regarding `CCN1CCCC1CNC(=O)c1cnn(-c2ncc3c(n2)-c2ccc(OC)cc2CC3)c1C1CC1` (stereo not given), the activation is inactive: -9.04%.

For `CN(Cc1ccco1)c1ncnc2ccc(-c3cccnc3)cc12`, the activation is inactive: -20.9%.

Consider `CC(=O)c1ccccc1-c1ccc2c(c1)CC(CNC(=O)Cc1c[nH]c3ccccc13)O2` (stereo not given), for which the activation was inactive: 6.42%.

In the case of `Nc1ncnc2nc(-c3ccc(N4CCOCC4)nc3)cc(-c3cccc(Br)c3)c12`, the activation was inactive: -78.7%.

In the case of `C[C@]12C=CC(=O)C=C1CC[C@@H]1[C@@H]2C(=O)C[C@@]2(C)[C@H]1CC[C@]2(O)C(=O)CO`, the activation is inactive: 3.22%.

Turning to `O=C1CCN(Cc2ccc(Br)cc2)CCN1[C@H](CO)c1ccccc1`, the activation is inactive: -21.6%.

Take `C=CCn1c(=O)n([C@@H]2O[C@H](CO)[C@@H](O)[C@H]2O)c2nc(N)[nH]c(=O)c21`: the activation was inactive: -24.1%.

With `CN(C)C(=O)c1ccc(-c2nccc(NCc3ccccc3)n2)cc1`, the activation is inactive: -0.0553%.

Take `C[C@]12C=CC(=O)C=C1CC[C@@H]1C2=CC[C@]2(C)[C@@H](C(=O)CN3CCN(c4cc(N5CCCC5)nc(N5CCCC5)n4)CC3)CC[C@@H]12`: the activation was inactive: -5.05%.

For `CCOC(=O)CCC(=O)O[C@H]1[C@H](O[C@@H]2[C@@H](C)[C@H](O[C@H]3C[C@@](C)(OC)[C@@H](O)[C@H](C)O3)[C@@H](C)C(=O)O[C@H](CC)[C@@](C)(O)[C@H](O)[C@@H](C)C(=O)[C@H](C)C[C@@]2(C)O)O[C@H](C)C[C@@H]1N(C)C`, the activation is inactive: -12.4%.

Take `CCCCCCCCCCCCC/C=C\[C@@H](O)[C@@H](N)CO`: the activation is inactive: -12.9%.

Take `Nc1ccc(C(=O)Nc2ccccc2N)cc1`: the activation is inactive: 0.0704%.

With `C[C@](N)(C(=O)O)c1ccc(-c2nn[nH]n2)cc1`, the activation is inactive: -5.28%.

With `CCCCCCCCCCCCCCCCCCN(CCCCCCCCCCCCCCCCCC)c1ccc(/C=C/c2ccc(C=O)cc2)cc1`, the activation was inactive: -8.08%.

Turning to `Cc1ccccc1-n1cc(CNC(=O)CN2Cc3ccccc3OC(C)C2)cn1` (stereo not given), the activation is inactive: -1.03%.

On to `COc1ccc2[nH]cc(CCNc3ncncc3-c3ccoc3)c2c1`, for which the activation is inactive: 0.9%.

On to `COc1cccc(C2(CC(=O)N3CCC(c4nc5ccccc5o4)CC3)CC(=O)N(C)C2=O)c1` (stereo not given), for which the activation is inactive: -12.1%.

For `CCCS(=O)(=O)NCc1c(C)ncc2c1CCN(C(=O)c1ccc3[nH]c4c(c3c1)CCCC4)C2`, the activation is inactive: -6.12%.

On to `C[n+]1cccc(C(=O)[O-])c1`, for which the activation was inactive: -9.71%.

For `CCCCCCCCCCCCCCC[C@@H](O)[C@@H](N)CO`, the activation was inactive: -13.3% and inactive: -10.2%.

Turning to `COc1cc(C)c(/C=C/C(C)=C/C=C/C(C)=C/C(=O)O)c(C)c1C`, the activation was inactive: -4.79% and inactive: -4.32%.

With `CCOC(=O)C[C@H]1c2ccc(C(F)(F)F)cc2S(=O)(=O)N1C(C)(C)C`, the activation was inactive: -31.8%.

With `CCCCCCCCCCCCCCCCCC(=O)OCC(O)CO` (stereo not given), the activation was inactive: 6.63%.

On to `CCNc1ncc2nc(-c3cn(C)c4ccccc34)c(=O)n(-c3ccccc3)c2n1`, for which the activation was inactive: 14.5%.

In the case of `COc1cc(CN2CCCC(n3cc(C(=O)N4CCCCC4)nn3)C2)cc(OC)c1OC` (stereo not given), the activation was inactive: -2.07%.
